# The source gives no read counts; variants with many changes may rest on few reads.
# B1: CPEB3 Ribozyme (parent)
# chain: UAACAGGGGGCCACAGCAGAAGCGUUCACGUCGCAGCCCCUGUCAGAUUCUGGUGAAUCUGCGAAUUCUGCUGUAUAUCUC
# Variants of: B1
# Experiment: self-cleavage, relative activity (ratio to wild type); higher = more cleavage; in vitro, sequencing
# Summary of the method: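 Libraries of CPEB3 self-cleaving ribozyme mutants came from rounds of error-prone PCR and carried barcodes, which DNA sequencing matched to variants. In vitro transcription used T7 RNA polymerase at 37°C for 5 hours, with a further 15 min in DNase I before EDTA stopped the reaction; the ribozymes cleaved during both steps. The RNA was reverse transcribed with template switching and sequenced on Illumina. Relative activity is the cleaved/total read fraction of a variant divided by that of the unmutated ribozyme, averaged over three batches with at least 5 reads.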
row,Variant,self-cleavage
1,UAACAGGGUGCCACAGCAGGAGCGUUCACGCCGCAGCCCCUGUCAGAUUCUGGUGAAUCUGCGAAUUCUGCUGCAUAUCUC [G9U A20G U31C U74C],0.28
2,UAACAGGGUGCCACUGCAGAAGCGUUCACGUCGCAGCCCCUGUCCGAUUCUGGUGAAUCUGCGAACUCUGCUGUAUACCUC [G9U A15U A45C U66C U78C],0.15
3,UAACAGGGUGCCGCGGCAGAAGCGUUCACGUCGCAGCCCCUGUCAGAUCCUGGUGAAUCUGCGAAUUCUGCCGUAUAUCUC [G9U A13G A15G U49C U72C],0.3
4,UAACAGGGUGCCUCGGCAGAGGCGUUCACGUCGCGGCCCCUGUCUGAUUCUGGUGAAUCUGCGAACUCUGCUGUAUAUCUC [G9U A13U A15G A21G A35G A45U U66C],0.05
5,UAACAGGGUGCCACAGCUGAAGCGAUCACGUCGCAGCCCCUGCCAGAUUCUGGUGAAUCUGCGAAUUCUGCUGUAUAUCUC [G9U A18U U25A U43C],0.3
6,UAACAGGGCGCCACAGCAGAAGCGUUCACGCCGCAGCCCCUGUCAGAUUCUGGUGGAUCUGCGAAUUCUGCCGUAUAUCUC [G9C U31C A56G U72C],0.11
7,UAACAGGGUGCCACAGCAGACGCGUUCACUUCGCAGCCCCUGCCAGAUUCAGGUGAAUCUGCGAAUUCUGCUGUAUAUCUC [G9U A21C G30U U43C U51A],0.1
8,UAACAGGGUGCCACAGCUGAAGCGCUCACGUCGCAGCCCCUGUCAGAUUCUGGUGAAUCUGCGAAUUAUGCUGUAUAUCUC [G9U A18U U25C C68A],0.11
9,UAACAGGGUGCCACAGCAGGAGCGUCCACGUCGCAGCCCCUGUCAGAUUCCGGUGAAUCUGCGAAUCCUGCUGUAUAUCUC [G9U A20G U26C U51C U67C],0.12
10,UAACAGGGUGCCACAGCAGUAGCGUUCACGUCGCGGCCCCUGUCAGAUUCUGGUGAAUCUGCGAAUUCUGCUGUAUAUCUC [G9U A20U A35G],0.05
11,UAACAGGGCGCCACAGCAGAAGCGUUCACGUCGCAGCCCCCGUCAGAUUCUGGUGAAUCUGCGAAUUCAGCUGUAUAUCUC [G9C U41C U69A],0.24
12,UAACAGGGUGCCACGGCAGAAGCGUUCGCGUCGCAGCCCCUGUCAGAUUCUGGUGAAUCUGCGAAUUCUGCUGUAUAUCAC [G9U A15G A28G U80A],0.39
13,UAACAGGGCGCCACAGCAGAAGCGUUCACGACGCAGCCCCUGUCAGAUUCUGGUGAAUCUGCGAAUCCUGCUGUAUAUCUC [G9C U31A U67C],0.06
14,UAACAGGGUGCCACAGCAGUAGCGUUCACGUCGCAGCCCCUGUCAGGUUCUGGUGAAUCUGCGAAUUCUGCUGUAUAUCUC [G9U A20U A47G],0.05
15,UAACAGGGUGCCACAGCAGGAGCGUUCACGUCGCAGCCCCUGUCAGAUUUUGGUGAAUCCGCGAAUUCGGCCGCAUAUCUC [G9U A20G C50U U60C U69G U72C U74C],0.04
16,UAACAGGGUGCCACUGCAGAAGCGCUCACGCCGCAGCCCCUGUCAGAUUCCGGUGUAUCUGCGAAUUCUGCUGUAUAUCUC [G9U A15U U25C U31C U51C A56U],0.07
17,UAACAGGGUGCCACGGCAGAAGCGUUCACGUCGCUGCCCCUGUCAGAUCCUGGUGAAUCUGCGGAUUCUGCUAUUUAUCUC [G9U A15G A35U U49C A64G G73A A75U],0.03

row,Variant,self-cleavage
1,UAACAGGGUGCCACAGCAGGAGCGUUCACGUCCCAGCCCCUGUCAGAUUCUGGUGAAUCUGCGAAUUCUGCUGUAUAUCUC [G9U A20G G33C],0.09
2,UAACAGGGUGCCACAGCAGGAGCGGUCACGUCGCAGCCCCUGUCAGGUCCUGGUGAAUCUGCGAAUUCUGCUGUAUAUCUC [G9U A20G U25G A47G U49C],0.04
3,UAACAGGGUGCCACAGCUGAAGCGCUCACGUCGCAGCCCCUGUCAGAUUCUGGUGAAUCUGCGUAUUCUGCUGUAUAUCUC [G9U A18U U25C A64U],0.04
4,UAACAGGGUGCCACAGCAGAGGCGUUCGCGUCGCAGCCCCUGUCAGAUUCUGGUGAAUCUGCGAAUUCUGCUGUAUAUCUC [G9U A21G A28G],0.27
5,UAACAGGGUGCCACGGCAGAAGCGUUCACGUCGCAGCCCCUGUCAGAUUCUGGUGAGUCUGCGAAUUCUGCCGUAUAUCUC [G9U A15G A57G U72C],0.19
6,UAACAGGGUGCCACAGCGGAAGCGUUCACGUCGCAGCCCCUGUCAGACGCAGGUGAAUCGGCGAACUCUGCUGUAUAUCUC [G9U A18G U48C U49G U51A U60G U66C],0.02
7,UAACAGGGCGCCACAGCAGAAGCGUUCACGUCGCAGCCCCCGUCAGAUUCUGGUGAAUCUGCGGAUUCUGCUGUAUAACUC [G9C U41C A64G U78A],0.25
8,UAACAGGGUGCCGCAGCAGAAGCGUUCACGUCGCAGCCCCUGUCAGAUACUGGUGAAUCUGCGAAUUCUGCUGUGUAUCUC [G9U A13G U49A A75G],0.05
9,UAACAGGGUGCCACAGCGGAAGCGUUCACGUCGCGGCCCCUGUCAGAUUCUGGUGAAUCUGCGAAUUCUGCUGUAUAUCCC [G9U A18G A35G U80C],0.31
10,UAACAGGGUGCCACGGCUGAAGCGUUCACGUCGCAGCACCUGUCAGAUUCUGGUGAAUCUGCGAAUUCUGCUGUAUAUCUC [G9U A15G A18U C38A],0.06
11,UAACAGGGUGCCACAGCAGGAGCGUUCACGUCGCUGCCCCUGUCAGAUUCUGGUGAAUCUGCGAAUUCCGCUGUAUAUCUC [G9U A20G A35U U69C],0.05
12,UAACAGGGUGCCACAGCGGAAGCGUUCACGUCUCAGCCCCUGUCAGAUUGUGGUGAAUCUACGAAUUCUGCUGUAUAUCUC [G9U A18G G33U C50G G61A],0.04
13,UAACAGGGUGCCACAGCAGCAGCGAUCACGUCGCACCCCCUGUCAGAUUCUGGUGAAUCUGCGAGUUCCGCUGUAUACCUC [G9U A20C U25A G36C A65G U69C U78C],0.03
14,UAACAGGGUGCCACAGCAGGAGCGUUCGCGUCGCAGCCCCUGUCAGAUUCUGGUGAAUCUGCGAGCUCUGCUGUAUAUCUC [G9U A20G A28G A65G U66C],0.04
15,UAACAGGGUGCCGCAGCAGAAGCGUUCACGUCGCAGCCCCUGUCAGAUUCUGGUGAAUCUGCGAACUCUGCUGUAUAUCUC [G9U A13G U66C],0.13
16,UAACAGGGCGCCACAGCAGAAGCGUUCACGCCGCAGCCCCUGCCAGAUUCUGGUGAAUCUGCGAAUUCUGCCGUAUAUCUC [G9C U31C U43C U72C],0.19
17,UAACAGGGUGCCACAGCAGGAGCGUUCGCGUCGCAGCCCCUGUCAGAUCCUGGAGAAUCCGCGAAUUCUGCUGUAUAUCUC [G9U A20G A28G U49C U54A U60C],0.05
